From PubChem BioAssay AID1508624 (National Center for Advancing Translational Sciences (NCATS), 2021) come the findings set out here.

Hit rate of the full screen: of about 48,000 compounds, about 120 (0.25%) were called active. Inconclusive results (about 4%) are left out. The call rests on the fitted dose curve; in most records, active means well fitted activation curve with a large enough effect; inconclusive means small, poorly fitted or top-dose-only effect, or another doubt; inactive means no such curve, though single readings can be large or run the other way. Some of the results follow.

This experiment in a line: Primary qHTS for Identification of Small Molecule Activators of Huntingtin-Antisense Promoter Activity. Further: nearly all actives have a fitted effect of over 55% in size. The conditions noted are these: HEK293 HTT-AS promoter firefly luciferase reporter, 24 h; series mostly up to 57.5 µM; activity change, positive = activation: at the top concentration. The method, boiled down: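 Firefly luciferase readout (Dual-Glo, 10 min RT) after 24 h, 37 °C compound exposure (final up to 57.5 uM) of HEK293 reporter cells cultured 24 h beforehand; PTC124 at 50 uM final as control inhibitor; activity scaled vehicle 0%, zero RLU -100%.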
A general note: In qHTS, concentration-response curves come from the screen itself.
Regarding `COc1ccc(-c2onc(C)c2C)cc1S(=O)(=O)NCc1ccc(C)o1`, the “activity change, positive = activation” value is inactive: -36.2%.

`COc1ccc(CCCc2nnc(SCC(=O)Nc3cccc(C)c3)o2)cc1`: the activity change, positive = activation was inactive: -2.21% [at 11.5 µM, percent change from vehicle, -100% = no light].

As for `COc1ccc(-c2nc3ccc(C4=NNC(=O)CC4C)cc3[nH]2)cc1` (configuration not stated), the “activity change, positive = activation” value was inactive: 12.2%. As to `Cc1nn(CCC(=O)NCc2ccc(Cl)cc2)c(=O)c2nn(-c3ccccc3)c(C)c12`, the “activity change, positive = activation” value is inactive: 7.26%. Take `Cc1ccc2[nH]cc(C(c3ccccc3)c3ccc(C)s3)c2c1` (configuration not stated): the “activity change, positive = activation” value is inactive: -26.8%. Next, `CCC(C)NC(=O)CCc1c(C)nc2c(c(C)nn2-c2ccc(C)cc2)c1C` (configuration not stated): inactive: -9.68%; `CCOc1cccc(CC(=O)NCc2ccc3c(c2)CCN3C(C)=O)c1OCC`: inactive: 3.98%. Next, `CCOC(=O)c1ccc(-c2ccc(/C=C(\C#N)c3nc4ccc(C)cc4[nH]3)o2)cc1`: inactive: 6.87%; `COCC(C)NC(=O)c1cc2c(=O)n3cccc(C)c3nc2s1` (configuration not stated): inactive: 16.8%.

With `CCN(c1ccc(Cl)cc1)S(=O)(=O)c1nnc(NC(=O)c2ccccc2C)s1`, the “activity change, positive = activation” value was inactive: -34.3%. Consider `CC(CNC(=O)C1CCN(C(=O)N2CCOc3ccc(Cl)cc32)CC1)c1ccccc1` (configuration not stated), for which the “activity change, positive = activation” value was inactive: -16.5%. Next, `CC(C)(C)C1CCc2nc(NC(=O)c3ccc([N+](=O)[O-])cc3)sc2C1` (configuration not stated): inactive: -33.2%. The figure for `CC1Cn2c(C(=O)NCc3cccc(Br)c3)cc3cccc(c32)S1` (configuration not stated) is inactive: -11.5%; for `Cc1ccc(C(=O)O)cc1NC1(c2ccccc2)C(=O)c2ccccc2C1=O` it is inactive: -2.51%; for `Cc1cccc(-c2nc3c(cnn3-c3ccccc3)c(=O)n2-c2ccc(Br)cc2)c1` it is inactive: 9.29%. Next, `COc1ccc2oc(-c3ccc(C)c(NC(=O)c4ccc(-c5ccccc5[N+](=O)[O-])o4)c3)nc2c1`: inactive: -27.1%; `Cc1c(Cl)cccc1NC(=O)CSc1nc2ncccc2o1`: inactive: -19%. Turning to `C[C@@H]1[C@H](O)[C@@H](C)C=CC=CC=CC=CC=CC=CC=C[C@H](O[C@@H]2O[C@H](C)[C@H](O)[C@H](N)[C@@H]2O)C[C@@H]2O[C@](O)(C[C@@H](O)C[C@@H](O)[C@H](O)CC[C@@H](O)C[C@@H](O)CC(=O)O[C@H]1C)C[C@H](O)[C@@H]2C(=O)O`, the “activity change, positive = activation” value is inactive: -10.3%. As to `COc1ccccc1CNC(=O)C1CCCN(c2nnc(C)c3c(C)n(-c4ccccc4)nc23)C1` (configuration not stated), the “activity change, positive = activation” value was inactive: -9.53%. Next, `CC(=O)OCC1=C(C(=O)O)N2C(=O)[C@@H](NC(=O)Cc3cccs3)[C@H]2SC1`: inactive: 3.11%; `O=C(CCSCc1cccc(Cl)c1)NCc1ccc(F)cc1Cl`: inactive: -15.3%; `CCc1ccccc1NC(=O)c1sc2nc(C)cc(COC)c2c1N`: inactive: -2.85%. For `Cc1ccc2[nH]c(CSc3nnc(NC(=O)c4ccccc4F)s3)cc(=O)c2c1`, the “activity change, positive = activation” value is inactive: -25.2%.

Consider `Cc1ccc(S(=O)(=O)c2[nH]c(-c3ccccc3)nc2SCCC(=O)O)cc1`, for which the “activity change, positive = activation” value is inactive: -2.83%. Next, `Cc1cccc(CCNC(=O)c2ccc(CSCc3cccc(Cl)c3)o2)c1`: inactive: -17.1%; `Cc1cccc(N(Cc2cc3ccccc3[nH]c2=O)C(=O)c2cccc(Cl)c2)c1`: inactive: -30.1%; `Cc1ccc(N2CC(NC(=O)CCc3ccccc3)CC2=O)cc1C` (configuration not stated): inactive: -2.67%. Next, `CCCn1c(=N)n(CC(O)COc2ccccc2OC)c2ccccc21` (configuration not stated): inactive: -9.26%. The figure for `Cc1nn(CC(=O)N2CCN(c3cccc(C(F)(F)F)c3)CC2)c(=O)c2cc3sccc3n12` is inactive: -13.1%; for `CCOc1ccc(NC(=O)c2c(Nc3ccccc3C)sc(C(=O)c3ccc(Cl)cc3)c2N)cc1` it is inactive: -17.4%; for `CCCN1CCN(c2cc3c(cc2F)c(=O)c(S(=O)(=O)c2ccc(CC)cc2)cn3CC)CC1` it is inactive: -3.97%. Regarding `CCOc1ccc(NC(=O)CC(C)O)cc1` (configuration not stated), the “activity change, positive = activation” value is inactive: -4.88%. The figure for `COc1ccccc1NC(=O)CSc1nc(-c2ccc(C)cc2)nc2c1Cc1c(CO)cnc(C)c1O2` is inactive: -9.83%. Next, `Cc1nn2c(=O)cc(COC(=O)c3ccc(NC(=O)c4cccc(Br)c4)cc3)nc2s1`: inactive: -35.4%; `COc1ccc(-c2cn3nc(N4CCCC(C(=O)Nc5ccccc5OC)C4)sc3n2)cc1` (configuration not stated): inactive: 2.74%. The figure for `COC(=O)c1ccccc1NC(=O)Cn1c(=O)n(CCC(=O)NCc2ccccc2OC)c(=O)c2ccccc21` is inactive: -9.77%; for `Cc1cn([C@@H]2O[C@H](CO)[C@@H](O)[C@H]2F)c(=O)[nH]c1=O` it is inactive: 0.566%; for `Cc1ccc(Cl)cc1NC(=O)CN1C(=O)CSc2ccc(S(=O)(=O)N3CCCC3)cc21` it is inactive: -18.4%. Consider `c1ccc2occc2c1`, for which the “activity change, positive = activation” value is inactive: -6% [at 116 µM, percent change from vehicle, -100% = no light]. The figure for `CCOC(=O)c1c(S(=O)(=O)NCC(=O)N2CCN(c3cc(C)ccc3C)CC2)c(C)n(C)c1C` is inactive: -33.8%. The figure for `Cc1cccc(NC(=O)CCN2CCN(c3ccccc3F)CC2)c1` is inactive: 12.7%; for `C=Cc1ccc(Cn2c(=O)cc(C)c3c(C)nn(-c4ccccc4)c32)cc1` it is inactive: -22.3%. The figure for `O=C(NC1(C(F)(F)F)C(=O)Nc2c1c(=O)[nH]c(=O)n2-c1ccccc1)c1ccccc1Cl` (configuration not stated) is inactive: -0.734%; for `COc1cc(OC)cc(-c2cc3nc(C)c(CCC(=O)Nc4ccc(C(C)=O)cc4)c(C)n3n2)c1` it is inactive: -78.1%; for `CSCCC(NS(=O)(=O)c1ccc2c(c1)oc(=O)n2C)C(=O)Nc1ccc(Cl)cc1` (configuration not stated) it is inactive: -7.91%. `COc1ccc(OCC(=O)N(Cc2cccs2)c2ccc(OC)cc2)cc1`: the “activity change, positive = activation” value is inactive: -14.5%. The figure for `COCc1cc(C)nc2sc3c(c12)NC(c1ccc(O)c(OC)c1)N(c1ccccc1)C3=O` (configuration not stated) is inactive: -17.5%; for `CCn1c(C)c(C)c2cc(C(=O)NCc3ccc(OC(C)C)cc3)ccc21` it is inactive: -4.87%. Turning to `COc1cc2c(C(=O)N3CCN(c4cccc(C(F)(F)F)c4)CC3)cn(CC(C)C)c(=O)c2cc1OC`, the “activity change, positive = activation” value is inactive: -41.1%. The figure for `COc1ccc(NC(=O)Cn2c(=O)n(Cc3ccc4c(c3)OCO4)c(=O)c3ccc(C(=O)NC4CCCCC4)cc32)cc1` is inactive: -16%. Next, `COc1ccc(-c2noc(N3CCC(C(=O)N4CCN(c5ccccc5F)CC4)CC3)n2)cc1`: inactive: -47.7%; `CCOCCCNc1nc2ccccc2n2c(CC)nnc12`: inactive: 4.86%. Consider `CCCN(CCC)C(=O)C(CCC(=O)OCCCN1CCN(CCOC(=O)Cc2c(C)n(C(=O)c3ccc(Cl)cc3)c3ccc(OC)cc23)CC1)NC(=O)c1ccccc1` (configuration not stated), for which the “activity change, positive = activation” value is inactive: -26%. Next, `CCOc1ccccc1CNC(=O)c1ccc(NC(=O)N2CC(C)Sc3ccccc32)cc1` (configuration not stated): inactive: -26.5%. As to `O=C(NC1(C(F)(F)F)C(=O)Nc2c1c(=O)[nH]c(=O)n2-c1ccccc1)c1ccccc1` (configuration not stated), the “activity change, positive = activation” value was inactive: 6.67%.

In the case of `CCOc1ccc(C(=O)NCc2nc3cccnc3n2Cc2cccc(OC)c2)cc1`, the “activity change, positive = activation” value is inactive: -5.55%.

Consider `CCCN(CCC)C(=O)Cn1c(SCc2cccc(C(F)(F)F)c2)nc2cccnc21`, for which the “activity change, positive = activation” value was inactive: -16.6%.
